Measured values as given in the supplement of paper PMC8728848.
This is one part of the list.

Legend:
Test in all cases: glycan array binding signal (z-score within array); higher = stronger binding
Conditions in all cases: glycan notation: IUPAC condensed, linker removed
[1] = target: GlcNAc(b1-4)Gal(b1-4)GlcNAc
Summary of the method: (§1)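 Columns mapping to the same glycan were averaged after glycan names were converted to IUPAC-condensed notation. The data come from 3228 arrays in the Consortium for Functional Glycomics database, limited to those with an available protein sequence. Binding is reported as a within-array Z-score averaged across arrays of one protein sequence and across linkers.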

GlcNAc(b1-4)GlcNAc = target: GlcNAc(b1-4)GlcNAc
Summary of the method: as §1

[2] = target: GlcNAc(b1-4)GlcNAc(b1-4)GlcNAc
Summary of the method: as §1

[3] = target: GlcNAc(b1-4)GlcNAc(b1-4)GlcNAc(b1-4)GlcNAc(b1-4)GlcNAc
Summary of the method: as §1

[4] = target: GlcNAc(b1-4)GlcNAc(b1-4)GlcNAc(b1-4)GlcNAc(b1-4)GlcNAc(b1-4)GlcNAc
Summary of the method: as §1

[5] = target: GlcNAc(b1-4)[GlcNAc(b1-6)]GalNAc
Summary of the method: as §1

[6] = target: GlcNAc(b1-6)Gal(b1-4)GlcNAc
Summary of the method: as §1

GlcNAc(b1-6)GalNAc = target: GlcNAc(b1-6)GalNAc
Summary of the method: as §1

GlcNAc3Prop(b1-4)GlcNAc = target: GlcNAc3Prop(b1-4)GlcNAc
Summary of the method: as §1

[7] = target: GlcNAc6S(b1-3)Gal(b1-4)GlcNAc
Summary of the method: as §1

Kdn(a2-3)Gal(b1-3)GalNAc = target: Kdn(a2-3)Gal(b1-3)GalNAc
Summary of the method: as §1

Kdn(a2-3)Gal(b1-3)GlcNAc = target: Kdn(a2-3)Gal(b1-3)GlcNAc
Summary of the method: as §1

Kdn(a2-3)Gal(b1-4)Glc = target: Kdn(a2-3)Gal(b1-4)Glc
Summary of the method: as §1

Kdn(a2-3)Gal(b1-4)GlcNAc = target: Kdn(a2-3)Gal(b1-4)GlcNAc
Summary of the method: as §1

[8] = target: Kdn(a2-3)Gal(b1-4)[Fuc(a1-3)]GlcNAc
Summary of the method: as §1

Kdn(a2-6)Gal(b1-4)GlcNAc = target: Kdn(a2-6)Gal(b1-4)GlcNAc
Summary of the method: as §1

[9] = target: Man(a1-2)Man(a1-2)Man(a1-3)Man
Summary of the method: as §1

[10] = target: Man(a1-2)Man(a1-2)Man(a1-6)[Man(a1-3)]Man
Summary of the method: as §1

Man(a1-2)Man(a1-3)Man = target: Man(a1-2)Man(a1-3)Man
Summary of the method: as §1

[11] = target: Man(a1-2)Man(a1-3)[Man(a1-2)Man(a1-6)]Man
Summary of the method: as §1

[12] = target: Man(a1-2)Man(a1-3)[Man(a1-2)Man(a1-6)]Man(a1-6)[Man(a1-2)Man(a1-2)Man(a1-3)]Man
Summary of the method: as §1

[13] = target: Man(a1-2)Man(a1-3)[Man(a1-2)Man(a1-6)]Man(a1-6)[Man(a1-2)Man(a1-2)Man(a1-3)]Man(b1-4)GlcNAc(b1-4)GlcNAc
Summary of the method: as §1

[14] = target: Man(a1-2)Man(a1-3)[Man(a1-6)]Man(a1-6)[Man(a1-2)Man(a1-3)]Man(b1-4)GlcNAc(b1-4)GlcNAc
Summary of the method: as §1

[15] = target: Man(a1-2)Man(a1-6)[Man(a1-3)]Man(a1-6)[Man(a1-2)Man(a1-2)Man(a1-3)]Man
Summary of the method: as §1

[16] = target: Man(a1-2)Man(a1-6)[Man(a1-3)]Man(a1-6)[Man(a1-2)Man(a1-2)Man(a1-3)]Man(b1-4)GlcNAc(b1-4)GlcNAc
Summary of the method: as §1

Man(a1-3)[Man(a1-6)]Man = target: Man(a1-3)[Man(a1-6)]Man
Summary of the method: as §1

[17] = target: Man(a1-3)[Man(a1-6)]Man(a1-6)[Man(a1-2)Man(a1-3)]Man(b1-4)GlcNAc(b1-4)GlcNAc
Summary of the method: as §1

[18] = target: Man(a1-3)[Man(a1-6)]Man(a1-6)[Man(a1-3)]Man
Summary of the method: as §1

[19] = target: Man(a1-3)[Man(a1-6)]Man(a1-6)[Man(a1-3)]Man(b1-4)GlcNAc(b1-4)GlcNAc
Summary of the method: as §1

[20] = target: Man(a1-3)[Man(a1-6)]Man(b1-4)GlcNAc(b1-4)GlcNAc
Summary of the method: as §1

B1: Siglec-F (Mus musculus), Q920G3 (protein)
chain: MRWAWLLPLLWAGCLATDGYSLSVTGSVTVQEGLCVFVACQVQYPNSKGPVFGYWFREGANIFSGSPVATNDPQRSVLKEAQGRFYLMGKENSHNCSLDIRDAQKIDTGTYFFRLDGSVKYSFQKSMLSVLVIALTEVPNIQVTSTLVSGNSTKLLCSVPWACEQGTPPIFSWMSSALTSLGHRTTLSSELNLTPRPQDNGTNLTCQVNLPGTGVTVERTQQLSVIYAPQKMTIRVSWGDDTGTKVLQSGASLQIQEGESLSLVCMADSNPPAVLSWERPTQKPFQLSTPAELQLPRAELEDQGKYICQAQNSQGAQTASVSLSIRSLLQLLGPSCSFEGQGLHCSCSSRAWPAPSLRWRLGEGVLEGNSSNGSFTVKSSSAGQWANSSLILSMEFSSNHRLSCEAWSDNRVQRATILLVSGPKVSQAGKSETSRGTVLGAIWGAGLMALLAVCLCLIFFTVKVLRKKSALKVAATKGNHLAKNPASTINSASITSSNIALGYPIQGHLNEPGSQTQKEQPPLATVPDTQKDEPELHYASLSFQGPMPPKPQNTEAMKSVYTEIKIHKC
glycan array binding signal (z-score) [1]: -0.115 | glycan array binding signal (z-score) (GlcNAc(b1-4)GlcNAc): -0.123 | glycan array binding signal (z-score) [2]: -0.125 | glycan array binding signal (z-score) [3]: -0.124 | glycan array binding signal (z-score) [4]: -0.126 | glycan array binding signal (z-score) [5]: -0.119 | glycan array binding signal (z-score) [6]: -0.116 | glycan array binding signal (z-score) (GlcNAc(b1-6)GalNAc): -0.118 | glycan array binding signal (z-score) (GlcNAc3Prop(b1-4)GlcNAc): -0.088 | glycan array binding signal (z-score) [7]: -0.118 | glycan array binding signal (z-score) (Kdn(a2-3)Gal(b1-3)GalNAc): -0.103 | glycan array binding signal (z-score) (Kdn(a2-3)Gal(b1-3)GlcNAc): -0.108 | glycan array binding signal (z-score) (Kdn(a2-3)Gal(b1-4)Glc): -0.129 | glycan array binding signal (z-score) (Kdn(a2-3)Gal(b1-4)GlcNAc): -0.116 | glycan array binding signal (z-score) [8]: 0.015 | glycan array binding signal (z-score) (Kdn(a2-6)Gal(b1-4)GlcNAc): -0.119 | glycan array binding signal (z-score) [9]: -0.122 | glycan array binding signal (z-score) [10]: -0.121 | glycan array binding signal (z-score) (Man(a1-2)Man(a1-3)Man): -0.126 | glycan array binding signal (z-score) [11]: -0.124 | glycan array binding signal (z-score) [12]: -0.111 | glycan array binding signal (z-score) [13]: -0.123 | glycan array binding signal (z-score) [14]: -0.109 | glycan array binding signal (z-score) [15]: -0.13 | glycan array binding signal (z-score) [16]: -0.122 | glycan array binding signal (z-score) (Man(a1-3)[Man(a1-6)]Man): -0.113 | glycan array binding signal (z-score) [17]: -0.114 | glycan array binding signal (z-score) [18]: -0.115 | glycan array binding signal (z-score) [19]: -0.105 | glycan array binding signal (z-score) [20]: -0.123
